# Laboratory results: the supplement of paper PMC9446081
# The campaign covered roughly 39,000 compounds. About 220 (0.56%) showed activity. The list shows a part of the results.
# Test system: Escherichia coli K-12 BW25113
# Experiment: relative growth (OD600 normalised to plate interquartile mean) (fraction); higher = less growth inhibition, active = 0.2 or less
# Details: 50 µM; LB; incubation time: overnight (16-24 h)
# 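Note: static incubation at 37 °C against the wild-type strain, values averaged over two biological replicates.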
row,SMILES,relative growth
1,Cc1ccc(S(=O)(=O)N(C)C[C@@H]2Oc3ncc(C#CCC(C)C)cc3C(=O)N([C@H](C)CO)C[C@@H]2C)cc1,inactive: 0.994
2,O=C(CCc1cn(CC[C@@H]2OC(=O)[C@H](Cc3ccccc3)N3CC4=CC(=O)[C@H](C5CC5)[C@H]4[C@H]23)nn1)NO,inactive: 1.02
3,CC(C)CC#Cc1cnc2c(c1)C(=O)N([C@H](C)CO)C[C@H](C)[C@H](CN(C)S(=O)(=O)c1cccs1)O2,inactive: 1.02
4,COc1ccc(NC(=O)Nc2ccc3c(c2)C(=O)N([C@@H](C)CO)C[C@@H](C)[C@@H](CN(C)Cc2ccc(C(=O)O)cc2)OCCCC[C@H](C)O3)cc1,inactive: 1.01
5,C[C@@H]1CCCCO[C@@H](CN(C)Cc2ccc3c(c2)OCO3)[C@H](C)CN([C@@H](C)CO)C(=O)c2cc(NS(=O)(=O)c3cccs3)ccc2O1,inactive: 0.999
6,COc1ccc(CN(C)C[C@H]2Oc3c(NC(=O)c4ccc(-c5nccs5)cc4)cccc3C(=O)N([C@H](C)CO)C[C@H]2C)cc1,inactive: 0.939
7,COc1cc(C(=O)N2CCOCC2)cc(OC)c1OC,inactive: 1.09
8,COc1ccc(CN2C[C@@H](C)[C@H](OC)CN(C)C(=O)c3cc(NC(=O)c4nc5ccccc5s4)ccc3OC[C@H]2C)cc1,inactive: 1.04
9,C[C@H](CO)N1C[C@H](C)[C@@H](CN(C)CC2CCCCC2)Oc2c(NC(=O)Nc3ccc(F)cc3)cccc2C1=O,inactive: 0.933
10,C[C@@H]1CN([C@H](C)CO)C(=O)Cc2cc(NC(=O)c3ccncc3)ccc2O[C@@H]1CN(C)Cc1ccc(-c2ccccc2)cc1,inactive: 1.01
11,C[C@@H]1CN([C@@H](C)CO)C(=O)c2cccc(NC(=O)c3ccc(-c4nccs4)cc3)c2O[C@H]1CN(C)CC1CCCCC1,inactive: 0.932
12,COc1ccc(S(=O)(=O)Nc2ccc3c(c2)C(=O)N([C@@H](C)CO)C[C@H](C)[C@H](CN(C)CC2CCCCC2)OCCCC[C@H](C)O3)cc1,inactive: 0.967
13,C[C@H]1CN([C@@H](C)CO)C(=O)c2cccc(NC(=O)Nc3cccc4ccccc34)c2O[C@H]1CN(C)Cc1ccc2c(c1)OCO2,inactive: 0.994
14,O=C(C[C@H]1C=C[C@H](NS(=O)(=O)c2ccc(F)cc2)[C@H](CO)O1)NCc1ccc(Cl)c(Cl)c1,inactive: 0.997
15,O=C(C[C@@H]1CC[C@H]2[C@@H](COC[C@H](O)CN2C(=O)Nc2cccc(F)c2)O1)NCCCN1CCOCC1,inactive: 1
16,COCC(=O)Nc1ccc2c(c1)OC[C@@H](C)N(C(=O)CN1CCOCC1)C[C@@H](C)[C@H](OC)CN(C)C2=O,inactive: 1.01
17,C[C@@H]1CN([C@@H](C)CO)C(=O)c2c(c3ccccc3n2C)-c2ccccc2CO[C@@H]1CN(C)C(=O)N[C@H](C)c1ccccc1,inactive: 0.985
18,C[C@@H]1CN([C@H](C)CO)C(=O)c2cccc(NC(=O)c3nc4ccccc4s3)c2O[C@H]1CN(C)Cc1ccc(Oc2ccccc2)cc1,inactive: 0.999
19,CO[C@H]1O[C@H]2CO[C@H]([C@@H]1O)[C@@H]2O,inactive: 0.99

row,SMILES,relative growth
1,COc1ccc2c3c(n(c2c1)C)[C@H](CO)N(C[C@]13CCN(CC1)C(=O)Nc1ccc(cc1)F)C(=O)c1ccc(cc1)F,inactive: 0.995
2,COc1cccc(-c2ccc3c(c2)O[C@H](CN(C)C(=O)C2CCOCC2)[C@H](C)CN([C@@H](C)CO)S3(=O)=O)c1,inactive: 1.01
3,C[C@@H]1CCCCO[C@H](CN(C)S(C)(=O)=O)[C@@H](C)CN([C@H](C)CO)C(=O)c2cc(NC(=O)Nc3cccc4ccccc34)ccc2O1,inactive: 1.01
4,O=C(C[C@@H]1C=C[C@@H](NC(=O)CN2CCOCC2)[C@H](CO)O1)NCCc1ccccc1,inactive: 1
5,C[C@H](CO)N1C[C@H](C)[C@@H](CN(C)S(=O)(=O)c2ccc(Cl)cc2)Oc2c(NC(=O)Nc3ccc(C(F)(F)F)cc3)cccc2C1=O,inactive: 0.798
6,CC(C)N1C[C@@H](C)[C@H](CN(C)S(=O)(=O)c2ccc(F)cc2)OCCCC[C@H](C)Oc2ccc(NC(=O)Nc3ccccc3)cc2C1=O,inactive: 1.02
7,C[C@@H]1CN([C@H](C)CO)S(=O)(=O)c2ccc(C#Cc3ccncc3)cc2O[C@H]1CN(C)S(=O)(=O)c1ccccc1,inactive: 0.991
8,C[C@H]1CN([C@@H](C)CO)C(=O)c2cc(NC(=O)C3CC3)ccc2O[C@H]1CN(C)S(=O)(=O)c1ccc(F)cc1,inactive: 0.989
9,COC(=O)c1c2oc(c1C(=O)OC)C(=O)N[C@H](Cc1ccccc1)Cn1cc(nn1)[C@@H](Cc1ccccc1)NC(=O)N[C@H](COC(=O)NCCCCCC(=O)NO)CC2,inactive: 1.04
10,C[C@@H]1CN([C@H](C)CO)C(=O)c2cc(C#CCN(C)C)cnc2O[C@@H]1CN(C)S(=O)(=O)c1ccccc1,inactive: 0.993
11,COc1cccc(NC(=O)N(C)C[C@@H]2OCc3ccccc3-c3c(n(C)c4ccccc34)C(=O)N([C@@H](C)CO)C[C@@H]2C)c1,inactive: 1.06
12,COc1cccc(S(=O)(=O)N[C@H]2CC[C@H](CC(=O)NC3CCC3)O[C@@H]2CO)c1,inactive: 1.01
13,COc1cc2nccc(Oc3ccc(NC(=O)c4cn(C(C)C)c(=O)n(-c5ccc(F)cc5)c4=O)cc3F)c2cc1OC,inactive: 0.99
14,Cc1noc(C)c1S(=O)(=O)Nc1ccc2c(c1)C(=O)N([C@@H](C)CO)C[C@@H](C)[C@@H](CN(C)C(=O)Nc1ccc(F)cc1)OCCCC[C@@H](C)O2,inactive: 1
15,C[C@H]1CN([C@@H](C)CO)S(=O)(=O)c2ccc(C#CCN(C)C)cc2O[C@H]1CN(C)C(=O)CN(C)C,inactive: 0.91
16,Cc1ccc(S(=O)(=O)N(C)C[C@@H]2Oc3ccc(NC(=O)NC(C)C)cc3C(=O)N([C@@H](C)CO)C[C@H]2C)cc1,inactive: 1
17,COc1ccc(S(=O)(=O)N(C)C[C@H]2Oc3c(NS(C)(=O)=O)cccc3C(=O)N([C@@H](C)CO)C[C@H]2C)cc1,inactive: 0.98
18,Fc1cccc(CSCc2c(F)cccc2Cl)c1,inactive: 0.83
